Assay results from PubChem BioAssay AID463173 (ICCB-Longwood Screening Facility, Harvard Medical School, 2010).
The campaign covered roughly 52,000 compounds. About 1,700 (3.3%) were called active. Rule as the data show it: active = survival mostly below about 52% (no sharp cut-off); inactive = mostly above about 56%. The list shows a part of the results.

system: Wild type; assay: growth inhibition of S. aureus wild type versus tarO mutant, primary screen, teichoic acid synthesis inhibitors, RN4220, OD600 (AID 463173); details: S. aureus RN4220 wild type/DeltatarO growth, OD600, 18 h, stronger effect = lower value, screened at 18.75 µg/mL (by protocol)

Row | SMILES | survival
1 | CN1CCN(Cc2cc3sccc3n2Cc2ccc(F)cc2)CC1 | inactive: 119%
2 | Cc1cc(C)cc(N(C)S(=O)(=O)c2nnc(NC(=O)COc3ccc(Cl)cc3)s2)c1 | inactive: 80%
3 | CC(=O)c1cccc(NC(=O)CN2C(=O)CN(C)C(=O)c3ccccc32)c1 | inactive: 79%
4 | CCc1nc(SCc2cc(=O)c3cc(F)ccc3[nH]2)n[nH]1 | inactive: 125%
5 | Cc1ccc(N2CCN(c3cc(C)nc4c(-c5ccc(Cl)cc5)c(C)nn34)CC2C)cc1 (configuration not stated) | active: 14%
6 | NC(=O)Cn1c(=O)n(-c2ccc(F)c(Cl)c2)c(=O)c2sc3ccccc3c21 | inactive: 102%
7 | CCOc1ccc(NC(=O)c2ccc3c(c2)c(C)c(C)n3Cc2ccc(F)cc2)cc1 | inactive: 73%
8 | Cc1ccc(NC(=O)Cn2ncc3c4ccccc4n(Cc4ccccc4)c3c2=O)cc1Cl | inactive: 94%
9 | Cc1ccc(C)c2sc(N3CCN(C(=O)c4ccco4)CC3)nc12 | inactive: 159%
10 | Cc1cn2c(=O)c(S(=O)(=O)NC(C)c3ccccc3)c(C)nc2s1 (configuration not stated) | inactive: 82%
11 | CCC(=O)Nc1ccc(C(=O)CSc2ncc(C#N)c(N)n2)cc1OC | inactive: 106%
12 | CN1CC(C(=O)O)CC1=O (configuration not stated) | inactive: 112%
13 | CCCCCn1c(Br)nc2c1c(=O)n(CC(N)=O)c(=O)n2C | inactive: 100%
14 | Cc1cccc(OCc2nnc(SC(C)C(=O)O)n2Cc2ccccc2)c1 (configuration not stated) | inactive: 113%
15 | Cc1cc2nc(-c3cccc(NC(=O)COc4ccc(C(C)C)cc4)c3)oc2cc1C | inactive: 52%
16 | COc1ccc(N2CCN(C(=O)c3c(C)oc4nc(C)nc(N5CCCC5)c34)CC2)cc1 | inactive: 87%
17 | Cc1ccc(N(C)S(=O)(=O)c2c(-c3ccccc3)csc2C(=O)O)cc1 | inactive: 61%
18 | COc1ccc(-c2nc(C)c(CCNC(=O)c3cccs3)s2)cc1 | inactive: 55%
19 | Cc1ccccc1-c1nnc(SCC(=O)N2CCCc3ccccc32)o1 | active: 15%
20 | CCN(CC)S(=O)(=O)c1cccc(C(=O)Nc2ccccc2)c1 | inactive: 114%
21 | Cc1nc(-c2ccc(S(=O)(=O)Nc3ccc(OC(F)(F)F)cc3)cc2)co1 | inactive: 83%
22 | Cc1ccc(NC(=O)N2CCC(CN3CCCCCC3)CC2)c(Cl)c1 | inactive: 56%
23 | CC(C)c1ccc(N2C(=O)CSC23C(=O)N(Cc2ccccc2F)c2ccccc23)cc1 (configuration not stated) | inactive: 127%

Row | SMILES | survival
24 | CCCNC(=O)c1c(NC(=O)c2ccccc2F)sc2c1CCCCC2 | inactive: 82%
25 | O=c1cc(CSc2nnc(COc3ccccc3)o2)c2ccccc2[nH]1 | inactive: 116%
26 | CC(C)Oc1ccc(CNS(=O)(=O)c2csc(C(N)=O)c2)cc1 | inactive: 75%
27 | COc1ccc(-c2nc(SCC(=O)Nc3ccc4c(c3)OCO4)c(-c3ccc(F)cc3)[nH]2)cc1OC | inactive: 65%
28 | O=C1c2ccccc2C(=O)C1(c1ccccc1)N1CCN(c2cccc(C(F)(F)F)c2)CC1 | inactive: 109%
29 | CCOc1ccccc1NC(=O)CCc1nc(-c2cccc(C)c2)no1 | inactive: 79%
30 | Cc1ccc(-c2nc(C(=O)Nc3cccc(C#N)c3)c3n2CCCCC3)cc1 | inactive: 114%
31 | Cc1cccc(C(=O)OCc2cc(=O)n3nc(C4CC4)sc3n2)c1 | inactive: 89%
32 | COc1ccc(Cl)cc1NC(=O)c1cc2ccccn2n1 | inactive: 146%
33 | Cc1nc2nncn2c(Nc2ccc(F)cc2)c1C | inactive: 83%
34 | CCC(=O)N1CCc2cc(S(=O)(=O)NCCC(=O)NCc3ccc(OC)cc3)ccc21 | inactive: 72%
35 | COc1cccc(-n2c(=O)c3sccc3n(Cc3cc(=O)n4cc(Cl)ccc4n3)c2=O)c1 | inactive: 91%
36 | CCNc1nc2ccccc2s1 | inactive: 104%
37 | CCCn1c(N2CCN(Cc3ccc(Cl)cc3)CC2)nc2ccccc21 | inactive: 123%
38 | Cc1ccc(C(=O)Nc2cc3cc(Cl)ccc3oc2=O)cc1 | inactive: 77%
39 | Cc1ccc(-c2nc(CCNC(=O)C(=O)Nc3ccc(F)cc3F)cs2)cc1 | inactive: 63%
40 | Cc1ccc2c(c1)N(CC(=O)NCCCN1CCCCC1)C(=O)c1cccnc1O2 | inactive: 86%
41 | COc1ccccc1CNC(=O)CCCN1C(=O)CCn2nc(-c3cn(C)c4ccccc34)cc21 | inactive: 69%
42 | Cc1ccc(-c2nc3sc(CCNC(=O)c4ccco4)c(C)n3n2)cc1 | inactive: 82%
43 | CC(C)C(=O)Nc1c(C(=O)N2CCN(c3ccccc3F)CC2)oc2ccccc12 | inactive: 49%
44 | Fc1ccc(C(c2nnc(-c3ccccc3)o2)N2CCN(c3ccccc3)CC2)c(Cl)c1 (configuration not stated) | inactive: 66%
45 | Cc1cc(NS(=O)(=O)c2ccc(NC(=S)NC(=O)c3ccccc3)cc2)no1 | inactive: 99%
46 | Cc1ccc(CSc2nc3ccncc3n2Cc2nc(-c3ccc(Cl)cc3)oc2C)cc1 | inactive: 68%

Row | SMILES | survival
47 | COc1cc(Cl)c(C)cc1NC(=O)c1nn(-c2ccc(C)cc2)c(=O)n(C)c1=O | inactive: 66%
48 | CCOc1ccc(S(=O)(=O)N(C(C)=O)c2ccc3oc(C)c(C(=O)OC)c3c2)cc1 | inactive: 130%
49 | COc1cccc(NC(=O)CSc2c(C)cnc3c2c(=O)n(C)c(=O)n3C)c1 | inactive: 111%
50 | CCCOC(=O)c1c(NC(=O)c2cc3nc(-c4ccc(OC)cc4)cc(C(F)(F)F)n3n2)sc2c1CCCC2 | inactive: 122%
51 | COC(=O)CSc1nc(-c2ccccc2)cc(C(F)(F)F)n1 | inactive: 111%
52 | CCOc1ccc(N2CC(NC(=O)c3cc4ccccc4o3)CC2=O)cc1 (configuration not stated) | inactive: 128%
53 | COc1ccc2oc(=O)c(C(=O)N3CCN(c4cc(Cl)ccc4Cl)CC3)cc2c1 | inactive: 66%
54 | Cc1ccc(C)c(NC(=O)Cn2c(-c3nonc3N)nc3ccccc32)c1 | inactive: 95%
55 | CCC(CC)N1CCN(S(=O)(=O)c2ccc(NC(C)=O)cc2)CC1 | inactive: 113%
56 | CCOC(=O)c1ccc(NC(=O)C(=O)NCCc2ccc(OC)cc2)cc1 | inactive: 81%
57 | CCOc1ccc2c(O)csc2c1 | inactive: 115%
58 | COc1ccccc1N1CCN(C(=O)c2cnn(C(C)(C)C)c2C2CCN(C(=O)OC(C)(C)C)CC2)CC1 | inactive: 128%
59 | CCCC(=O)Nc1cccc(-c2nc3ncccc3o2)c1 | inactive: 88%
60 | CC(=O)c1ccc(NC(=O)C2CCCN(S(=O)(=O)c3ccc(Br)s3)C2)cc1 (configuration not stated) | inactive: 128%
61 | Cc1cccn2c(=O)c3cc(C(=O)NC(C)(C)C)n(C)c3nc12 | inactive: 91%
62 | CCOC(=O)C1CCN(c2nc3c(S(=O)(=O)c4ccc(CC)cc4)nnn3c3ccc(Cl)cc23)CC1 | inactive: 124%
63 | Cc1cc(Cl)ccc1NC(=O)CS(=O)(=O)c1cccc2nsnc12 | inactive: 140%
64 | CCOC(=O)c1ccc(NC(=O)C2CCN(S(=O)(=O)Cc3ccccc3)CC2)cc1 | inactive: 87%
65 | O=C(NC(=S)NCc1ccccc1)c1ccco1 | inactive: 110%
66 | CCOc1ccc(NC(=O)c2sc3nc4n(c(=O)c3c2C)CCCC4)cc1 | inactive: 86%
67 | Cc1cc(C)cc(NC(=O)CSc2oc(-c3cccs3)nc2S(=O)(=O)c2ccc(Br)cc2)c1 | inactive: 75%
68 | Cc1cccc(NC(=O)c2ccc(F)c(S(=O)(=O)NCc3ccc4c(c3)OCO4)c2)c1 | inactive: 63%
69 | Cc1ccc(C(=O)NCCSc2c[nH]c3ccccc23)cc1C | inactive: 52%

Row | SMILES | survival
70 | Cc1ccn2c(Nc3ccc4c(c3)OCO4)c(-c3ccc(C)o3)nc2c1 | inactive: 23%
71 | CCOc1ccc(N(CC)C(=O)c2cc3c(s2)-c2ccc(Cl)cc2SC3)cc1 | inactive: 77%
72 | CCc1ccc(NCc2cc3ccc(OC)cc3n(CC(=O)Nc3ccccc3OC)c2=O)cc1 | inactive: 71%
73 | COC(=O)c1sc2cccc(F)c2c1S(=O)(=O)NC(C)c1ccccc1 (configuration not stated) | inactive: 47%
74 | COc1ccc(NC(=O)C2(S(=O)(=O)c3ccc(C)cc3)CC2)c(OC)c1 | inactive: 92%
75 | COc1ccc(-c2c(C)c3ccc(O)c(CN4CCCCC4C)c3oc2=O)cc1OC (configuration not stated) | inactive: 83%
76 | CCCCOC(=O)OC1CCS(=O)(=O)C1 (configuration not stated) | inactive: 100%
77 | CCCN(CCC)C(=O)Cn1c(=O)n(-c2ccc(CC)cc2)c(=O)c2c3c(sc21)CCC3 | inactive: 97%
78 | CCOC(=O)C1CCN(C(=O)c2ccc3c(=O)n4nc(Nc5ccccc5)sc4nc3c2)CC1 | inactive: 128%
79 | COc1cc(O)ccc1-c1nc2ccc(Br)cn2c1Nc1ccccc1C | inactive: 64%
80 | O=C1O/C(=C/C(=O)N2CCOCC2)c2ccccc21 | inactive: 113%
81 | CCSc1ncc(Cl)c(C(=O)Nc2ccc(S(=O)(=O)N3CCCCC3CC)cc2)n1 (configuration not stated) | inactive: 83%
82 | CCOc1ccc(NC(c2ccc(Cl)cc2)c2nnc(-c3cccc(F)c3)o2)cc1 (configuration not stated) | inactive: 86%
83 | Cc1ccc(CN(C(=O)COc2cccc(Cl)c2)c2ccccn2)o1 | inactive: 79%
84 | O=C(CSc1nccn1Cc1ccc(F)cc1)NC1CCCC1 | inactive: 68%
85 | O=C(Nc1ccccc1F)C(c1ccccc1)N1Cc2ccccc2C1=O (configuration not stated) | inactive: 75%
86 | CCCNC(=O)c1cccc(C)c1 | inactive: 105%
87 | CCCOc1ccccc1C(=O)N1CCCCC1CCN1CCCCC1 (configuration not stated) | inactive: 87%
88 | CCc1ccc(-n2nc(C)c3c(C(=O)Nc4ccc(Cl)cc4)cc(C)nc32)cc1 | inactive: 53%
89 | Cc1ccc(C)c(-c2ccc(=O)n(C(C)C(=O)Nc3ccccc3C(F)(F)F)n2)c1 (configuration not stated) | inactive: 81%
90 | CCCCNC(=O)CSc1nc(-c2ccc(OC)cc2)cc(C(F)(F)F)n1 | inactive: 72%
91 | CCC(=O)N1c2ccccc2CC1C(=O)NCCc1ccccc1OC (configuration not stated) | inactive: 124%
92 | COc1ccc(OC)c(-n2nnc(-c3nc(-c4ccc5c(c4)OCO5)no3)c2C)c1 | inactive: 70%
